Reference: publication PMC5560758, “SCF^AtPP2-B11 modulates ABA signaling by facilitating SnRK2.3 degradation in Arabidopsis thaliana” (PLoS Genetics, 2017)
No constants are given. Whether binding was seen depends on the method and setting. For some assays here: In cells and extracts the contact can be indirect. Some binding calls cover weakened binding; strength is not graded here. Where a sequence is shown, tags or fusion partners need not be part of it.

Amino acid sequences for entries named in this document (tags omitted).
UniProt Q39255: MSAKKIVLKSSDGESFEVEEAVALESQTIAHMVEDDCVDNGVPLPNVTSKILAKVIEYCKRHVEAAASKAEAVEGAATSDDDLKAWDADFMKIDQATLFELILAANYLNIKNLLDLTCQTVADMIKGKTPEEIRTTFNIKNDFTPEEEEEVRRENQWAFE
UniProt Q9FHW7: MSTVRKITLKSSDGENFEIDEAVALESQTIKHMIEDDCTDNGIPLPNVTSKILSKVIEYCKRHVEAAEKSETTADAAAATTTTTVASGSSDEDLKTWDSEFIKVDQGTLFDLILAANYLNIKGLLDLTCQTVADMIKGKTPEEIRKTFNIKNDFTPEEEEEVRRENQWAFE

How the values were obtained:
[1] = target: ASK1 (Arabidopsis Skp1-like protein), yeast two-hybrid fusion (Arabidopsis thaliana) (UniProt Q39255); test: two-hybrid; pairwise; AD (pGADT7) and BD (pGBKT7) constructs co-transformed into yeast AH109; growth on SD lacking Trp, Leu, His and Ade, 30°C, 3-5 days
[2] = target: ASK2 (Arabidopsis Skp1-like protein), yeast two-hybrid fusion (Arabidopsis thaliana) (UniProt Q9FHW7); test: as above
[3] = target: T1, SnRK2.3, yeast two-hybrid fusion (Arabidopsis thaliana) (UniProt Q39193); test: as above
T1 sequence: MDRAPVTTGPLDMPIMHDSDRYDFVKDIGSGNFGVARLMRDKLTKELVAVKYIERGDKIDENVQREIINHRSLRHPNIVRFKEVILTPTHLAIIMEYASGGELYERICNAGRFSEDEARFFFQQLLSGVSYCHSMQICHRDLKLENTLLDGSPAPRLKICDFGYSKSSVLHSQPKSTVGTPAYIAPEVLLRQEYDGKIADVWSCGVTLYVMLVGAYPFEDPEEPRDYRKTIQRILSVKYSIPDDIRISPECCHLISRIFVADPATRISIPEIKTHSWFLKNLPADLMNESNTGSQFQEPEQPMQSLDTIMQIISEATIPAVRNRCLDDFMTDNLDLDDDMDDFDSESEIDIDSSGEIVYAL

[4] = target: ASK1-YFP^C (Arabidopsis thaliana) (UniProt Q39255); test: split reporter; BiFC; YFP^N and YFP^C fusions co-expressed in N. benthamiana leaves by Agrobacterium infiltration; confocal imaging 36-48 h after infiltration
[5] = target: ASK2-YFP^C (Arabidopsis thaliana) (UniProt Q9FHW7); test: as above
[6] = target: T2, SnRK2.3-YFP^C (Arabidopsis thaliana) (UniProt Q39193); test: as above
T2 sequence: T1 sequence

[7] = target: T3, SnRK2.3-FLAG (Arabidopsis thaliana) (UniProt Q39193); test: co-IP; stably transformed Arabidopsis seedlings (7-day-old in the legend, ten-day-old in the methods) with AtPP2-B11-Myc and SnRK2-Flag; extract incubated with anti-Flag M2 agarose, 4°C 2 h or room temperature 1 h; 150 mM NaCl, pH 7.4, Triton X-100; anti-Myc blot
T3 sequence: T1 sequence

[8] = target: T4, GST-AtPP2-B11 (Arabidopsis thaliana) (UniProt Q949S5); test: pull-down; AtPP2-B11-GST held on GST beads, incubated with MBP-SnRK2s 2 h at room temperature or 4°C overnight; washed four times; anti-MBP blot; both purified
T4 sequence: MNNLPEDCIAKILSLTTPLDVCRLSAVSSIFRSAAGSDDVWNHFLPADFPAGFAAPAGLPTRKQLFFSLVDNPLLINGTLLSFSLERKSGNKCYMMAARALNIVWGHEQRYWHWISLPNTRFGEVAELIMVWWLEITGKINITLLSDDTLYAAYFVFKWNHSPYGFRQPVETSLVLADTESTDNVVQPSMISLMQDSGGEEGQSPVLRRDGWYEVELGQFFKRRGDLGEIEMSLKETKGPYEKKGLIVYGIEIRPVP

B1: AtPP2-B11 (phloem protein 2-B11), yeast two-hybrid fusion (protein, UniProt Q949S5 1-257)
chain: T4 sequence
[1]
  binding: binds
[2]
  binding: binds
[3]
  binding: binds

B2: AtPP2-B11-YFP^N (protein, UniProt Q949S5 1-257)
chain: T4 sequence
[4]
  binding: binds
[5]
  binding: binds
[6]
  binding: binds

B3: AtPP2-B11-Myc (protein, UniProt Q949S5 1-257)
chain: T4 sequence
[7]
  binding: binds

B4: MBP-SnRK2.2 (protein, UniProt Q39192 1-362)
chain: MDPATNSPIMPIDLPIMHDSDRYDFVKDIGSGNFGVARLMTDRVTKELVAVKYIERGEKIDENVQREIINHRSLRHPNIVRFKEVILTPSHLAIVMEYAAGGELYERICNAGRFSEDEARFFFQQLISGVSYCHAMQICHRDLKLENTLLDGSPAPRLKICDFGYSKSSVLHSQPKSTVGTPAYIAPEILLRQEYDGKLADVWSCGVTLYVMLVGAYPFEDPQEPRDYRKTIQRILSVTYSIPEDLHLSPECRHLISRIFVADPATRITIPEITSDKWFLKNLPGDLMDENRMGSQFQEPEQPMQSLDTIMQIISEATIPTVRNRCLDDFMADNLDLDDDMDDFDSESEIDVDSSGEIVYAL
[8]
  binding: no binding
